The supplement of paper PMC3334620
In all, about 33,000 sequences were measured (“E-score (-0.5 to 0.5)”: median about -0.041, highest 2% from about 0.37 on). Some of the results follow.

Target: T1, Ecm22 (UniProt Q05958)
T1 sequence: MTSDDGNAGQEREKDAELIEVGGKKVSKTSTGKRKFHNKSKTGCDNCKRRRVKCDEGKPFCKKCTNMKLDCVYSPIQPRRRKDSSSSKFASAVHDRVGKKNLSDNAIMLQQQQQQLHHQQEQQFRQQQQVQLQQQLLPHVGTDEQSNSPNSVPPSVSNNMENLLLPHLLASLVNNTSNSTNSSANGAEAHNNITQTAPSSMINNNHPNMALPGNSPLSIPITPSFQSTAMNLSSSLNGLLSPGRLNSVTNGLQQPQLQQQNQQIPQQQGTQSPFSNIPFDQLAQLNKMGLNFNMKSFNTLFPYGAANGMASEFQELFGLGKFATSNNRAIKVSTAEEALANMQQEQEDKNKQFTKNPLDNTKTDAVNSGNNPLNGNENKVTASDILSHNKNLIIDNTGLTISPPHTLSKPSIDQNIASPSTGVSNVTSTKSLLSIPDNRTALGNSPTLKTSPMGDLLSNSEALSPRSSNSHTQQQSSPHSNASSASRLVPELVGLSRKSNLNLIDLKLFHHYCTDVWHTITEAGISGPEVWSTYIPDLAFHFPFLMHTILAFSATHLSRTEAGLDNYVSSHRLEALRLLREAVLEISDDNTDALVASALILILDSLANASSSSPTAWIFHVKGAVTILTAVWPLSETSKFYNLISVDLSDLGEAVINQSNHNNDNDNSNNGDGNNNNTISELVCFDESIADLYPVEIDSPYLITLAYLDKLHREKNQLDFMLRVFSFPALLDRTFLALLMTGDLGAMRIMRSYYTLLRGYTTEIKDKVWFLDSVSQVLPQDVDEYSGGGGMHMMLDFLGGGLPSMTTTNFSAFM
Experiment: PBM E-score (8-mer binding enrichment) (E-score (-0.5 to 0.5)); higher = stronger / more preferred TF binding; most listed sequences are background and not binding sites
Conditions: protein concentration: 200 nM; construct: GST-full length
Procedure: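 Universal 'all 10-mer' protein binding microarrays (Agilent AMADID 015681) probed with GST-tagged S. cerevisiae TFs (full-length or DBD) made by in vitro transcription/translation (PURExpress), about 100-200 nM. Bound TF was detected with fluorescent anti-GST. Each ungapped 8-mer (which stands for itself and its reverse complement) is scored by the PBM enrichment score (E-score), a modified Wilcoxon-Mann-Whitney statistic from -0.5 to +0.5, computed with the Universal PBM Analysis Suite. Scale: above 0.35 generally sequence-specific binding.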

| Sequence | PBM E-score |
| --- | --- |
| CCCAGTTA | -0.0924 |
| ACCGCCCG | -0.0446 |
| CGTTGGTA | 0.223 |
| ATAATATC | 0.106 |
| GACTTTGA | 0.109 |
| CCCAGTGA | -0.237 |
| AAGTCGGG | -0.0466 |
| CTCGACAC | -0.0036 |
| CTAGGGAA | -0.165 |
| CTATTGGA | -0.257 |
| CATGCTTC | -0.0537 |
| CGCGGTCC | 0.0782 |
| AAATGAAC | 0.0804 |
| GACAGATA | 0.109 |
| GTCATTAA | 0.0869 |
| CAGCTACG | 0.173 |
| GCCACGTA | 0.16 |
| GGGAAATA | -0.147 |
| CTATCTGC | -0.131 |
| CCCGCAGC | -0.0168 |
| CAACGGCA | 0.0563 |
| GGCAGTTA | -0.248 |
| GATCGCAA | 0.118 |
| AGTGATGG | -0.184 |
| CACCTGGG | -0.227 |

| Sequence | PBM E-score |
| --- | --- |
| AGCCACGA | -0.0771 |
| GAACGTCC | 0.0563 |
| AACTATGA | -0.144 |
| TAGAAAAA | -0.0164 |
| ATGGTAAC | 0.0596 |
| CCATCGAC | -0.223 |
| ATCGATAC | 0.121 |
| AGGATAAC | 0.00941 |
| AGGCCATA | -0.143 |
| ACTTAGTG | -0.133 |
| CTACGCAA | -0.0129 |
| CCTAGCAG | -0.263 |
| GTTGGTTA | 0.00321 |
| AGTTTACG | 0.312 |
| AGTCTTAT | -0.218 |
| CCCCTAGA | -0.251 |
| AGAAATCA | -0.0993 |
| CCACACAC | -0.0415 |
| AACGCGCG | 0.294 |
| CTCCGGAC | -0.00105 |
| GGTCTCGA | 0.119 |
| GACGGTCA | -0.155 |
| ACCGAGGC | 0.164 |
| GGCAGCGA | -0.165 |
| GGGATACA | -0.239 |

| Sequence | PBM E-score |
| --- | --- |
| ATGGAAAT | -0.0843 |
| AAGCACCG | -0.0461 |
| ATAGGGAT | -0.0659 |
| GCGCCTGA | -0.135 |
| CACTGGAC | -0.0354 |
| CGACGGAA | 0.159 |
| GCGAGGAC | 0.0393 |
| GTCACAAC | 0.077 |
| AGTTCATA | -0.049 |
| CTTGCTTC | -0.131 |
| CTCTGGAA | 0.047 |
| ACAACAAA | 0.135 |
| CCTCGGCA | 0.165 |
| TCCCGGGA | -0.234 |
| ACTACTTA | 0.0179 |
| GGCCAGAA | -0.171 |
| CGCTTCGA | 0.0703 |
| CAGACGAA | 0.232 |
| CCGAGATA | 0.186 |
| CGAGCAAA | 0.256 |
| AAACCGCG | -0.0681 |
| AAGGCTGA | -0.247 |
| AAATTGTG | -0.151 |
| AAGAACAC | 0.0273 |
| AGCACAAC | 0.0676 |

| Sequence | PBM E-score |
| --- | --- |
| CTGGTTTC | -0.0712 |
| ACCGAACT | 0.0668 |
| GAGAACCC | -0.121 |
| GGTCGTGA | -0.0346 |
| ATACTTTG | 0.0163 |
| TCAATGGA | -0.217 |
| CTCTTATA | 0.205 |
| AATTATCT | -0.122 |
| AGATGCAG | -0.0553 |
| CAGTGCAC | -0.176 |
| AAAAACAC | -0.0895 |
| ACCTGACC | -0.143 |
| GACCCCAC | 0.0153 |
| AGTGTGCA | -0.125 |
| ACGTTGAT | 0.0446 |
| CTGGCGGC | -0.172 |
| CAAGACGA | -0.0769 |
| GTAGCGTA | 0.244 |
| ATTCGATG | -0.0139 |
| ATCGCTCA | 0.216 |
| CATAGGTA | 0.0765 |
| ACAGCCCA | -0.0257 |
| ATTTGAGC | -0.0853 |
| CGATGCAA | 0.133 |
| CCGACCGG | 0.248 |

| Sequence | PBM E-score |
| --- | --- |
| ATGACATA | 0.0554 |
| ATTCTTCG | 0.154 |
| CCTCACAG | -0.0635 |
| GTTTGGTA | 0.248 |
| AGTTCACC | 0.0476 |
| GAGGCCAC | -0.124 |
| CGTGATAA | 0.0329 |
| AAAGCCTT | -0.0935 |
| CTGCATAA | -0.136 |
| CAATGATA | -0.138 |
| AGGCCACA | -0.296 |
| GTGGCCCA | -0.132 |
| AGGTAATA | -0.0812 |
| ATCCCTCG | 0.178 |
| CCGCGGCG | -0.0681 |
| CCAGTGAA | -0.295 |
| GACGCCTA | -0.221 |
| TCCCCAAA | -0.124 |
| CTGATCGA | -0.0346 |
| AATACAGC | -0.185 |
| CAAAAGCC | -0.273 |
| CGATTGTC | 0.0603 |
| AGGTCGTG | -0.13 |
| GAAGGTAC | 0.215 |
| ACTTCATC | -0.051 |

| Sequence | PBM E-score |
| --- | --- |
| CAGCGCAG | -0.197 |
| CACGCTGA | -0.125 |
| AAGACTCG | 0.0673 |
| CAAGACCC | -0.0416 |
| GTTCCGCA | 0.268 |
| AGGTGGAC | -0.279 |
| GAACGGTA | 0.319 |
| CCAGTACA | -0.178 |
| AGGGGTTC | -0.0469 |
| AATTGGCA | -0.069 |
| ATCTTGAC | -0.224 |
| GGTCCAGA | -0.138 |
| CGTGAATC | 0.0832 |
| ACGATGCG | 0.328 |
| AAGTAGAT | -0.105 |
| CGCTCACG | 0.0805 |
| AACGTACG | 0.378 |
| ACGTGAAT | 0.17 |
| ACTGCCTG | 0.00565 |
| CGTCTACC | -0.05 |
| GCGGCTAC | -0.0768 |
| GTGTTCGA | 0.182 |
| CGTTTTCA | 0.188 |
| ATAAAATA | -0.0887 |
| CCGCCCCG | 0.00902 |

| Sequence | PBM E-score |
| --- | --- |
| AAACGTCC | -0.0477 |
| GATTGGGA | -0.353 |
| CTCATACC | 0.0043 |
| GATGTCGC | 0.201 |
| CGCTAGTA | 0.135 |
| CTGGTGGC | -0.0478 |
| ACTTCTTG | 0.0414 |
| GCTTCACA | -0.0992 |
| AATCTCAG | -0.204 |
| ATTATGAA | -0.107 |
| AGTCGCAT | 0.201 |
| GCGAGCAC | 0.208 |
| GCTCAAAC | 0.0479 |
| GACAACAA | 0.14 |
| AGTGAAGA | -0.0895 |
| GAGTGCAC | 0.0272 |
| AATTTTCC | 0.178 |
| AGAGATAT | 0.0139 |
| AGCGGAAG | 0.0826 |
| AGCCATGA | 0.131 |
| AACATTTA | 0.0425 |
| GGGAGCCC | -0.235 |
